Source: PubChem BioAssay (NCI)
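Test compounds were applied to cells in 96-well plates for 48 hours at 5 doses. At the GI50, growth is halved. TGI: concentration producing complete growth inhibition.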

System: NCI-H322M lung
Experiment: growth of human tumour cells (NCI), 48 h

Row | SMILES | GI50 | TGI
1 | COC1=C[C@]23CCC(=O)N2CCc2cc4c(cc2[C@@H]3[C@@H]1OC(=O)[C@H](C)O)OCO4 | 18.4 µM | > 52 µM
2 | COc1ccc2c(c1)c(/C=N/Nc1ccc3ccccc3n1)cn2C | 14.1 µM | 28.2 µM
